Drawing on PubChem BioAssay AID1434 (Sanford-Burnham Center for Chemical Genomics, 2008), this text covers inhibition for 29 compounds.

By inhibition is commonly meant the relative decrease from the control value, in per cent.

Some of the results follow. The main result of the screen is listed elsewhere. These columns were measured beside it and carry no call. Most of these compounds were active or inconclusive in the main read-out, so they are no random draw.

The target of this experiment is Runt-related transcription factor 1 (Homo sapiens) + Core-binding factor subunit beta (Homo sapiens) (UniProt Q01196+Q13951). Nature of the experiment: inhibitors of RUNX1 Runt–CBFb-SMMHC binding, primary screen, biochemical, FRET, Cerulean-Runt, Venus-CBFb-SMMHC, uHTS (AID 1434).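 Note: 0% = DMSO wells and 100% = wells with excess untagged CBFb-SMMHC; inhibitors lower the FRET ratio by blocking Runt binding to CBFb-SMMHC.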 To be noted: Cerulean-Runt/Venus-CBFb-SMMHC FRET ratio 530/480, 1 h; retest duplicate average; at 20 µM; stronger effect = higher value.
Sequence of UniProt Q01196 (Q01196 whole entry, looked up): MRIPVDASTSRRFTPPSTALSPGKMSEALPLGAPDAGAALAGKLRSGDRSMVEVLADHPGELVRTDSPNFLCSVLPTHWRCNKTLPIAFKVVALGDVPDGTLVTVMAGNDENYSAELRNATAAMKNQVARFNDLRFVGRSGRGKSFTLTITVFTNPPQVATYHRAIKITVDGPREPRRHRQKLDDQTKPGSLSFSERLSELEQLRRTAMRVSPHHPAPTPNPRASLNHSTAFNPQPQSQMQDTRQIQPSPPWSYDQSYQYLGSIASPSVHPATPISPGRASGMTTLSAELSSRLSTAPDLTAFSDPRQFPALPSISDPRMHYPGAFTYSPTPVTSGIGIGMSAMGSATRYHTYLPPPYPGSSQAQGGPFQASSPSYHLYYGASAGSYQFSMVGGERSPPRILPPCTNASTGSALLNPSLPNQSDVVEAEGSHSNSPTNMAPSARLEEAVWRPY
Sequence of UniProt Q01196 (Q13951 whole entry, looked up): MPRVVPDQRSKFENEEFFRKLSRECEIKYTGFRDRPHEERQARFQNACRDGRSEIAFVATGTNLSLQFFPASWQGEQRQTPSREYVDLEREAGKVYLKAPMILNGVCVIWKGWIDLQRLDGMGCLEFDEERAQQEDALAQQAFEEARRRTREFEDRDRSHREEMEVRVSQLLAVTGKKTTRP
On to `O=c1cc(-c2ccc(O)cc2)oc2cc(O)c(C3OC(CO)C(O)C(O)C3O)c(O)c12` (centres undefined), for which the inhibition was determined as 88.9%.

On to `CCOC(=O)C1=C(CSc2nc3c(cc2C#N)CN(C)CC3)OC(N)=C(C#N)C1c1ccc(Cl)cc1` (centres undefined), for which the inhibition was determined as 61.6%.

Turning to `CCN1CC=C2C(C#N)=C(N)C(C#N)(C#N)C(c3cc(Cl)ccc3Cl)C2C1` (centres undefined), the inhibition was determined as 75%.

Take `CCC(=O)Nc1c(S(=O)(=O)c2ccccc2)c2nc3ccccc3nc2n1Cc1ccccc1`: the inhibition stood at 142%.

As to `CC1(C)CC(=O)C2=C(C1)N(c1cccc(O)c1)C1=C(C2)C(=O)CC(C)(C)C1`, the inhibition was determined as 72.9%.

In the case of `CCOC(=O)c1c(/N=C/N(C)C)sc(C=O)c1-c1ccccc1`, the inhibition worked out at 178%.

For `CCOCCCNC(=S)NCCNc1nc2c(C)cccc2cc1C#N`, the inhibition is 85.1%.

Regarding `Cc1ccc(S(=O)(=O)c2cc3c(=O)n4ccccc4nc3n(CC3CCCO3)c2=N)cc1C` (centres undefined), the inhibition was 135%.

As for `CCCCc1cc(=O)oc2c(CN(C)C)c(O)c(Cl)cc12`, the inhibition was 154%.

With `CC(=O)N1CC[n+]2c(-c3ccc(Cl)cc3)csc21`, the inhibition worked out at 50.3%.

Consider `N#Cc1c2c(c(NCCN3CCOCC3)n3c1nc1ccccc13)CCCC2`, for which the inhibition amounted to 111%.

Take `COc1ccc(Br)cc1C1NC(=O)c2c(sc3c2CCN(C)C3)N1` (centres undefined): the inhibition amounted to 167%.

On to `CCn1c(SCC(=O)c2ccccc2)nc2sc3c(c2c1=O)CCN(C)C3`, for which the inhibition turned out to be 60.8%.

As for `COc1nc(N)c(S(=O)(=O)c2ccccc2)cc1C#N`, the inhibition was 121%.

In the case of `O=C(Nc1nc2c(s1)CN(Cc1ccccc1)CC2)C1CCC1`, the inhibition came to 152%.

As to `CCOC(=O)CCc1c(C)c2ccc(O)cc2oc1=O`, the inhibition was 90.3%.

As for `Nc1nc(N)c2nc(-c3ccccc3)c(N)nc2n1`, the inhibition is 60.7%.

For `Cc1ccccc1C(=O)N=c1c(C#N)cc2c(=O)n3cccc(C)c3nc2n1Cc1ccco1`, the inhibition turned out to be 102%.

On to `C(=N\n1cnnc1)/c1ccc(N2CCOCC2)s1`, for which the inhibition came out at 67.3%.

Take `CC1=C(C(=O)OCC2CCCO2)C(c2ccccc2OC(C)C)C2=C(CC(c3ccco3)CC2=O)N1` (centres undefined): the inhibition worked out at 121%.

On to `Nc1c(C(=O)NCCN2CCOCC2)c2nc3ccccc3nc2n1-c1cccc(F)c1`, for which the inhibition is 72.9%.

As for `Cc1cc(=O)oc2c(CN3CC(C)OC(C)C3)c(O)c(Cl)cc12` (centres undefined), the inhibition is 167%.

Consider `c1ccc(Cn2c(-c3cccs3)nc3nc4ccccc4nc32)cc1`, for which the inhibition is 82.6%.

`CCOC(=O)c1cc2c(=O)n3ccccc3nc2n(C(C)C)c1=NC(=O)c1ccncc1`: the inhibition stood at 177%.

Turning to `Oc1ccc(O)c(-c2cnns2)c1`, the inhibition came out at 56.4%.

Turning to `O=c1c2ccccc2sc2ccc(Cl)cc12`, the inhibition was 113%.

With `Cc1c(Cc2ccccc2)sc(/N=C/c2c(O)ccc3ccccc23)c1C(N)=O`, the inhibition stood at 71.5%.

Consider `CC(C)CN(C(=O)CN1CCc2ccccc21)c1c(N)n(CC(C)C)c(=O)[nH]c1=O`, for which the inhibition was 98.1%.

As for `O=S(=O)(c1ccc(N2CCC(c3ccc(Cl)cc3)=N2)cc1)N(CCO)CCO`, the inhibition amounted to 112%.
